B1: CPEB3 Ribozyme (parent)
chain: UAACAGGGGGCCACAGCAGAAGCGUUCACGUCGCAGCCCCUGUCAGAUUCUGGUGAAUCUGCGAAUUCUGCUGUAUAUCUC

Consider 84 variants from the RNAGym collection of RNA variant scans (doi:10.1093/nar/gkz1192).

The source gives no read counts; variants with many changes may rest on few reads.

The variants in the data set derive from B1. Briefly: self-cleavage, relative activity (ratio to wild type); higher = more cleavage; in vitro, sequencing. The method in brief:
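Relative activity compares each variant's cleaved/total read fraction with that of the unmutated ribozyme. To get these fractions, barcoded CPEB3 ribozyme libraries from rounds of error-prone PCR were transcribed with T7 RNA polymerase for 5 hours at 37°C and then given 15 min of DNase I treatment before EDTA was added. The RNAs were reverse transcribed with template switching and sequenced on Illumina, and DNA sequencing linked barcodes to variants. A minimum of 5 reads applied, and three batches were averaged.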
On to A18U A47G U54C C71A U78A, for which the self-cleavage came to 0.16.
The result for A18G U26C A45U U60C reads 0.09; that for A18U C27A U54A A57G U58C U69A, 0.1.
In the case of A18G U54C U58C it was 0.25.
Regarding A18G U48C G52A, the self-cleavage was found to be 0.21.
The result for A18U A20U U54C reads 0.18; that for A18G U41C U43C U69C U80C, 0.31.
As to A18G U26G U54C, the self-cleavage was 0.11.
The result for A18U A56G A57G reads 0.13; that for A18U A20U U49C U60C U80A, 0.1; that for A18U A20G U41C G53A, 0.24.
In the case of A18U A35G C40A U41C it was 0.3; in that of A18U A45G U78A, 0.46.
In the case of A18U A45G A57G A64G it was 0.33; in that of A18U C34U U41C G61A U69G C79U, 0.08.
On to A18U A20G U25C U66A U67A U72C A75U, for which the self-cleavage turned out to be 0.07.
As to A18G U48C A56G U60C U80C, the self-cleavage worked out at 0.13.
Turning to A18G U43A A45G U49C A57G U60A A75U, the self-cleavage came out at 0.06.
In the case of A18G U25C C38U U43C A47G U51C it was 0.
In the case of A18U A20C C32G it was 0.06; in that of A18G U25C A35G, 0.39.
With A18G U26C A28G G33C, the self-cleavage stood at 0.17.
The result for A18U A21G U43A reads 0.22; that for A18G U66C U69C U78C, 0.44; that for A18G U25C A56U U60C C71A U72C, 0.03.
The result for A18G U49C U58C reads 0.06.
In the case of A18U A28G C38U U67C U80C it was 0.09.
With A18U A28G A45G C68U, the self-cleavage is 0.19.
In the case of A18U C38U C81G it was 0.32; in that of A18G U48A A56G, 0.09.
In the case of A18G U43C A47G U49C C59U U67A it was 0.07; in that of A18G U54C U60A U66C, 0.23; in that of A18U A64U U72A, 0.18.
In the case of A18U C29G U69C it was 0.17.
Regarding A18U A35G U69A, the self-cleavage came out at 1.2.
In the case of A18U C32U U54C U72C it was 0.07; in that of A18U C23U G61A, 0.17.
The result for A18U A35G A56U A75G reads 0.28.
On to A18G U31C U51C G52C U66C, for which the self-cleavage stood at 0.15.
In the case of A18G U41C G42A A45G U58A U76A it was 0.37.
As to A18G U31C G73A, the self-cleavage was found to be 0.59.
The result for A18U C34G U48C reads 0.2.
The result for A18G U60A A75G reads 0.34; that for A18G U25C U41A U51G G52U A56G A57U, 0.2; that for A18G U26C U41C U49A U67G, 0.07.
The result for A18U A45U U54C G63A U69C reads 0.2.
Consider A18U C27A A35G U41C U72A, for which the self-cleavage amounted to 0.05.
The result for A18G U41C A77G reads 0.64; that for A18G U54G U66C, 0.29; that for A18U A20G A45G A56G A77U U78C, 0.09.
The result for A18U A35G A56G U76A reads 0.61; that for A18U A21G U41C U54C U60A A75U, 0.03; that for A18G U25C U43C U69G, 0.15.
In the case of A18G U41C U43A U69C it was 0.73; in that of A18G U48C A56G U69C U72A, 0.21; in that of A18G U25C U41A A45G U67A A75U, 0.04.
In the case of A18G U26C A28G U31A, the self-cleavage was determined as 0.21.
The result for A18G U25C A65G reads 0.25.
In the case of A18G U60C C62U it was 0.29; in that of A18G U48C U49C U51C U60A, 0.11.
In the case of A18G U25A U58A U69C U72A U76C it was 0.04; in that of A18G U48C U74C U76C, 0.4; in that of A18U A28U A56U U80A, 0.2.
Turning to A18U A21G U48C, the self-cleavage amounted to 0.1.
In the case of A18U A57G A64G it was 0.2; in that of A18U A28C A64U, 0.14; in that of A18G U67A C71G, 0.3.
In the case of A18G U25C U31A U43C it was 0.08; in that of A18U A20G U41C A77U, 0.12; in that of A18U A35G U78C, 0.25.
In the case of A18U A56G C79A it was 0.37; in that of A18U A57U A75U, 0.27; in that of A18G U49G U78C, 0.87.
On to A18U A56G U74A U78C, for which the self-cleavage is 0.59.
As for A18U C34A C40U U54C, the self-cleavage worked out at 0.15.
The result for A18U A45G A47G U80C reads 0.22; that for A18U A28U U31C A47G G55A U72C, 0.09; that for A18U C34A C40U U54C U80C, 0.07.
The result for A18G U41C U43C U58G reads 0.4; that for A18U A21U U31A U51A C71U, 0.16; that for A18G U43A A56G G63U, 0.74.
The result for A18U A20G G53A reads 0.39; that for A18G U25C A35G U51C C59U A77G U78A, 0.07; that for A18U A28U A35U U69A, 0.39.
